The source gives no read counts; variants with many changes may rest on few reads.

In the RNAGym collection of RNA variant scans (doi:10.1093/nar/gkz1192) one finds self-cleavage data, which are given here for 83 variants.

First the molecules themselves.
B1: CPEB3 Ribozyme (parent)
chain: UAACAGGGGGCCACAGCAGAAGCGUUCACGUCGCAGCCCCUGUCAGAUUCUGGUGAAUCUGCGAAUUCUGCUGUAUAUCUC

Variants of B1 are the subject of the data set. Nature of the data set: self-cleavage, relative activity (ratio to wild type); higher = more cleavage; in vitro, sequencing. The gist of the method: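 After error-prone PCR and barcoding, CPEB3 ribozyme mutant libraries were transcribed with T7 RNA polymerase at 37°C for 5 hours, then given 15 min with DNase I before an EDTA stop, and they cleaved during both steps. Reverse transcription with template switching preceded Illumina sequencing. Relative activity divides a variant's cleaved/total read fraction by the unmutated ribozyme's. At least 5 reads were required per variant, and three batches were averaged.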
In the case of A18G A21G U25C G42U U51C, the self-cleavage worked out at 0.05.

On to A18G A21G C39U U48C U51A U76C, for which the self-cleavage is 0.2.

For the variant A18G A28G A64G U74C, the self-cleavage was 0.27.

Consider A18G A45U U60A U74C, for which the self-cleavage is 1.

In the case of A18G A75G A77U, the self-cleavage worked out at 0.77.

Take A18G A21U A45C A56G: the self-cleavage was found to be 0.05.

With A18G C29U A57G U72C U80C, the self-cleavage turned out to be 0.16.

Take A18G A28C A56G: the self-cleavage came to 0.14.

On to A18G A21G U31C G33A, for which the self-cleavage amounted to 0.29.

As to A18G C23U C50G U60C A77U, the self-cleavage was found to be 0.05.

Take A18G A21G C39U G52A A57G U69C: the self-cleavage turned out to be 0.36.

As for A18G C27U U41C U43A A47U U60A, the self-cleavage came to 0.06.

For the variant A18G A21U U58A, the self-cleavage was determined as 0.07.

A18G A21G U26C A28U A65G: the self-cleavage worked out at 0.17.

In the case of A18G A21G U74C U76C, the self-cleavage stood at 0.55.

A18G A56G A57G U67C: the self-cleavage was determined as 0.29.

Regarding A18G A56G C79A, the self-cleavage turned out to be 0.62.

A18G A28U G33U U41C: the self-cleavage is 0.13.

A18G A35G A65U: the self-cleavage amounted to 0.49.

Take A18G A21C U25A A65G: the self-cleavage amounted to 0.39.

For the variant A18G A35G A45U G70C, the self-cleavage worked out at 0.27.

For A18G C27G U31C A35U U43A, the self-cleavage was determined as 0.05.

Turning to A18G A28U U41C U54C U58A U67C U72A, the self-cleavage amounted to 0.11.

With A18G A21U U51G A57G U72A, the self-cleavage worked out at 0.06.

With A18G C39U G63A, the self-cleavage came to 0.34.

Consider A18G A64U U78C, for which the self-cleavage was 0.27.

Consider A18G C27U C39U A47G U69C U76A, for which the self-cleavage turned out to be 0.38.

On to A18G C38G G52C A75U U78C, for which the self-cleavage is 0.18.

For the variant A18G C37U C40U U51C, the self-cleavage is 0.21.

A18G C29U U48G: the self-cleavage worked out at 0.21.

As to A18G A21G U54C A64U U74C, the self-cleavage came out at 0.19.

As to A18G C62G U76A, the self-cleavage came to 0.26.

Consider A18G C32A C38U, for which the self-cleavage is 0.41.

Consider A18G A21G U80C, for which the self-cleavage was determined as 0.54.

For the variant A18G A57G U72C, the self-cleavage was 0.25.

As for A18G A57G U72A, the self-cleavage worked out at 0.23.

For A18G A28G G61U, the self-cleavage came to 0.14.

With A18G A28C C29G U67C, the self-cleavage is 0.14.

In the case of A18G A20U U67C, the self-cleavage is 0.14.

A18G A35U G46U U58A: the self-cleavage turned out to be 0.15.

Consider A18G A20U U48C U49C U74C, for which the self-cleavage came out at 0.1.

On to A18G A45U A47G U72C, for which the self-cleavage stood at 0.27.

With A18G A45G U72C, the self-cleavage worked out at 0.39.

With A18G C23U A28G U43A C50U U78A, the self-cleavage turned out to be 0.05.

As to A18G C32U U43C A45G U48C U54G A64G, the self-cleavage worked out at 0.05.

With A18G C68A U69C U74A U80A, the self-cleavage stood at 1.08.

Take A18G A28G A64G A77G: the self-cleavage is 0.14.

In the case of A18G A35U A47G A56G U80C, the self-cleavage stood at 0.13.

For the variant A18G A21U C40U U69C U78C, the self-cleavage was 0.22.

Regarding A18G A65U U74A U78A, the self-cleavage was 0.2.

Turning to A18G C29U U72A A75G, the self-cleavage came to 0.3.

With A18G A64G U72A, the self-cleavage stood at 0.33.

As to A18G A28G G42U, the self-cleavage turned out to be 0.23.

A18G A28U U41A U51C U69C A77G: the self-cleavage was 0.13.

A18G A21G U69C: the self-cleavage amounted to 0.95.

As to A18G A35G U60C U78A, the self-cleavage was found to be 0.55.

A18G A47G A75G A77C: the self-cleavage amounted to 0.48.

A18G A45C A57G: the self-cleavage worked out at 0.16.

As to A18G A28C A35G A47G U48C U74C, the self-cleavage came out at 0.1.

Turning to A18G A45G A47G, the self-cleavage worked out at 0.2.

Regarding A18G A28C U41C, the self-cleavage turned out to be 0.2.

As for A18G A28C U41A, the self-cleavage stood at 0.13.

For A18G C39U G63A A64G U72A, the self-cleavage was 0.12.

Consider A18G A65G U66C U76C, for which the self-cleavage was 0.23.

For A18G A35U A64G U66A, the self-cleavage was determined as 0.05.

With A18G C27A A57G U69C, the self-cleavage amounted to 0.16.

Regarding A18G C29U U69A, the self-cleavage was determined as 0.17.

Turning to A18G A21G U41C A45G U66C U69A, the self-cleavage is 0.26.

For the variant A18G A45C A65G U72A, the self-cleavage was determined as 0.14.

On to A18G C32U U48C C50A U54C U72C, for which the self-cleavage amounted to 0.07.

Regarding A18G A56G A57G A64C U69A, the self-cleavage stood at 0.14.

Turning to A18G A35G U49C, the self-cleavage is 0.29.

For the variant A18G C37U U51A U58G, the self-cleavage worked out at 0.23.

For the variant A18G A35G U48A C59A U67C, the self-cleavage worked out at 0.1.

Turning to A18G A20U U72C, the self-cleavage worked out at 0.39.

Take A18G A28G A35U U43A A45U: the self-cleavage amounted to 0.09.

Take A18G C32U A64G U72C: the self-cleavage was found to be 0.25.

On to A18G C44U U51A A65G U72C, for which the self-cleavage came to 0.15.

With A18G A45U U51C U58C A64U, the self-cleavage came to 0.19.

For the variant A18G C32U G36U U78C, the self-cleavage stood at 0.06.

A18G A20U U69A: the self-cleavage came out at 0.19.

Turning to A18G A47G A64G, the self-cleavage worked out at 0.37.

For the variant A18G A35U U43C U60A, the self-cleavage came to 0.09.
